Each structure is given as a SMILES string. In all, about 50,000 compounds went through this assay and about 800 (1.6%) showed an effect of 50% or more. The list shows a part of the results.

In the experiment the target is Bcl-2-like protein 10 (Homo sapiens) (UniProt Q9HD36). The experiment in a line: TR3 peptide-Bcl-B binding displacers, biochemical primary FP assay, phenotype converters (AID 1240).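 Also: 0% = Bcl-B with tracer peptide and DMSO and 100% = tracer peptide lacking Bcl-B.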 As to conditions: GST-Bcl-B / FITC-TR3 peptide fluorescence polarization; stronger effect = higher value; compound at 3.75 mg/L. On the technique in general: Polarisation of emitted light reports the rotation of a fluorescent probe.
Sequence of UniProt Q9HD36 (Q9HD36 whole entry, looked up): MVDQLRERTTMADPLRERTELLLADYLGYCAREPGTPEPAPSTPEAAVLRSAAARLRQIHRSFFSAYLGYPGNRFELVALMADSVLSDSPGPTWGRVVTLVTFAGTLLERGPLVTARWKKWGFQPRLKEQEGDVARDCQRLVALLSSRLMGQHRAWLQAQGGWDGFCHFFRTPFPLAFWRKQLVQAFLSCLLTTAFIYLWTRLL
In the case of `Cc1ccccc1OCC(=O)NCCSc1ccccn1`, the displacement was found to be 4.4%.
For the molecule `CCOC(=O)C1=C(O)/C(=C/c2ccc(O)cc2)N=C1C`, the displacement was -9.4%.
As for `Cc1ccc(N2C(=O)/C(=C/c3ccc(Oc4ccc([N+](=O)[O-])cn4)cc3)C(=O)NC2=S)cc1`, the displacement turned out to be 1.9%.
The figure for `CC(=O)c1ccc(N2CCN(C(=O)c3cccs3)CC2)c(F)c1` is -4.6%.
The figure for `CC(C)OC(=O)c1ccc(NC(=O)COc2ccc([N+](=O)[O-])cc2)cc1` is -10%; for `CCOC(=O)c1c(NC(=S)Nc2ccccc2)sc2c1CCCCC2` it is 6.1%; for `CCCCCc1nnc(NC(=O)COc2ccccc2)s1` it is 1.4%.
The figure for `c1ccc(-c2cc(N3CCCCC3)nc3ccccc23)cc1` is 2.6%; for `COc1ccc(S(=O)(=O)N(CC(=O)N2CCCCCC2)c2ccc(C)cc2)cc1OC` it is -7.2%; for `CC1=CC(C)(C)Nc2ccc(OC(=O)CN3C(=O)c4ccccc4C3=O)cc21` it is -2.3%.
Turning to `O=C(c1ccccc1F)N1CCN(c2ccc(Cl)cc2[N+](=O)[O-])CC1`, the displacement came to 7.8%.
The same measure for `CC(=O)NC(c1ccccc1)c1c(OC(=O)c2ccccc2)ccc2ccccc12` (stereo not drawn): -4.1%.
The same measure for `CCOCCOC(=O)c1cccc(NC(=O)c2ccccc2C)c1`: 6.1%.
The figure for `c1ccc(OCCCn2ccnc2)cc1` is -7.2%; for `O=C(NCCCn1ccnc1)c1cc([N+](=O)[O-])cc([N+](=O)[O-])c1` it is -12.7%; for `COc1ccc(C2/C(=C(/O)c3ccc(Cl)cc3)C(=O)C(=O)N2C)c(OC)c1` (stereo not drawn) it is 7.6%.
With `O=C(O)CSc1nnc(COc2ccccc2)n1-c1ccc(Cl)cc1`, the displacement was 2.5%.
Turning to `N#CC1=C(SCC(=O)Nc2ccc(Br)cc2)NC(=O)CC1c1cccs1` (stereo not drawn), the displacement is -10.4%.
The figure for `CCOC(=O)c1c(NC(=O)c2ccc(C)cc2)sc(C(=O)Nc2ccccc2C(F)(F)F)c1C` is -12.4%.
For `CC(C)(Cc1ccc(O)cc1)NC(=O)SCc1ccccc1`, the displacement was -10.4%.
In the case of `CC(=O)Nc1cccc(NC(=O)c2cc(Cl)ccc2Cl)c1`, the displacement is 4.6%.
The same measure for `CC1(C)Cc2c(sc3nc(SCc4ccc(Cl)cc4)n(Cc4ccccc4)c(=O)c23)CO1`: 9.4%.
The figure for `COc1ccc(S(=O)(=O)Nc2ccc(F)c([N+](=O)[O-])c2)cc1` is 15.9%; for `COc1ccc(/C=C/C(=O)Nc2ccc([N+](=O)[O-])cc2)cc1` it is 3%; for `CCN(CC)CC(=O)Nc1ccc2c(c1)N(C(=O)CNN(CC)CC)c1ccccc1CC2` it is -2%.
The figure for `OCCN=Cc1c2ccc[nH]c-2c2ccccc12` is 14.1%; for `Cn1c(/C=C/c2c[nH]c3ccccc23)nc2ccccc2c1=O` it is 108%; for `CCOc1ccc2c(c1)C(C)=CC(C)(C)N2S(=O)(=O)c1ccc(NC(C)=O)cc1` it is 2.1%.
As for `Cc1cc(C)nc(/N=C(/N)NNC(=O)c2cccnc2)n1`, the displacement was -17.4%.
The same measure for `Cc1ccc(N(CC(=O)NCCSc2ccc(Cl)cc2)S(C)(=O)=O)cc1`: 13.4%; for `COC(=O)c1ccc(/C=c2\sc3nc4cc(C)c(C)cc4n3c2=O)cc1`: -7.7%; for `Cc1oc(C(=O)O)cc1CSCc1cc(C(=O)O)oc1C`: 12.9%.
The same measure for `COc1cc(C(=O)O)cc(OC)c1OC(=O)c1cc(C)c(C)o1`: -13.8%; for `Nc1nonc1/C(=N/O)N1CCN(CCO)CC1`: 7.8%.
As to `O=C(Nc1ccncc1)c1cc2ccccc2o1`, the displacement is 10.1%.
Consider `COc1cc(C(=O)Nc2ccc(Br)cn2)cc(OC)c1OC`, for which the displacement was -1.3%.
With `CCCCOC(=O)Nc1ccc(S(=O)(=O)Nc2cc(C)ccc2C)cc1`, the displacement worked out at 7.1%.
The same measure for `CC(=O)Nc1ccc(S(=O)(=O)Nc2cccc(C(=O)Nc3cccc(Cl)c3)c2)cc1`: -4.2%; for `COc1ccc(C(=O)Nc2ccccc2C(=O)NC(Cc2c[nH]c3ccccc23)C(=O)O)cc1` (stereo not drawn): 14.8%.
For `COc1ccc(C(=O)NCCSc2ccccn2)cc1`, the displacement is -8.2%.
The same measure for `O=C(/C=C/c1cccc([N+](=O)[O-])c1)Nc1ccc(F)c(Cl)c1`: 1.3%.
The figure for `CCSc1nnc2c(n1)OC(C)(C)Nc1ccccc1-2` is -6.3%.
The same measure for `O=C(N/N=C/C1CC=CCC1)c1cccnc1` (stereo not drawn): 4.9%.
As to `CC1=C(C(=O)OCCOC(C)C)C(c2ccccc2Cl)NC(=O)N1` (stereo not drawn), the displacement was -11.2%.
The same measure for `O=S1(=O)CC=C(CSc2nc3ccccc3[nH]2)C1`: 4%; for `CC(C)CC(NC(=O)/C(=C/c1ccccc1F)NC(=O)c1ccccc1)C(=O)O` (stereo not drawn): -2.1%.
The figure for `CN(C)CCN1C(=O)C(=O)/C(=C(/O)c2ccccc2)C1c1ccc(F)cc1` (stereo not drawn) is 2.1%; for `CCOc1ccc2nc(SCC(=O)Nc3ccc(C)cc3)sc2c1` it is -2.7%.
The figure for `CCN(c1ccccc1)c1nc2nonc2nc1N(C)C` is 4.8%; for `O=C(Cn1c(O)c(N=NC(=S)Nc2ccccc2)c2ccccc21)Nc1ccccc1` it is -0.2%; for `Cc1cc(Cl)ccc1OCC(=O)Nc1cccc(F)c1` it is 11.1%.
In the case of `C/C(=N\NC(=O)c1cc(C(C)(C)C)[nH]n1)c1ccc(Br)cc1`, the displacement is -4.7%.
Regarding `Cc1ccc(CN2CCN(N=Cc3ccccc3[N+](=O)[O-])CC2)c(C)c1`, the displacement amounted to 6.6%.
The figure for `CS(=O)(=O)N(Cc1ccc(Cl)cc1)c1ccc(C(=O)Nc2cccnc2)cc1` is -12.6%; for `COC(=O)c1ccc(COc2ccc3c4c(c(=O)oc3c2C)CCCC4)cc1` it is -4.5%.
In the case of `Cc1sc2ncnc(N3CCCCCC3)c2c1C`, the displacement was -1.2%.
The figure for `Cc1ccc(/C=C/C(=O)c2ccc([N+](=O)[O-])cc2)s1` is -14.7%.
In the case of `COc1ccc2c(C(F)(F)F)cc(=O)oc2c1`, the displacement is 13.7%.
For the molecule `O=C1CSC(c2ccc([N+](=O)[O-])cc2)N1CC12CC3CC(CC(C3)C1)C2` (stereo not drawn), the displacement was 7.9%.
The same measure for `CN1CCN(/N=C/C=C/c2ccccc2)CC1`: -2.3%; for `COc1ccc(NC2=C(Cl)C(=O)N(c3cccc(Cl)c3)C2=O)c(OC)c1`: -3.1%; for `CCCCOC(=O)C1=C(C)NC(=S)NC1c1ccc(N(C)C)cc1` (stereo not drawn): 6.6%.
The same measure for `COc1ccc(-c2nnc(SCC(=O)c3ccc(F)cc3)n2-c2ccccc2)cc1`: 10.5%.
In the case of `OC(COc1ccc(Cl)cc1)CSc1nc2ccccc2s1` (stereo not drawn), the displacement is -12.9%.
`O=C1CC(c2ccccc2)CC2=C1C(c1cccc(C(F)(F)F)c1)Nc1ccccc1N2` (stereo not drawn): the displacement was found to be 8.2%.
On to `CCSc1nnc(NC(=O)c2c(-c3c(Cl)cccc3Cl)noc2C)s1`, for which the displacement turned out to be 9%.
The same measure for `Oc1ccccc1C=Nc1ccccc1N=Cc1c(O)ccc2ccccc12`: -8.6%; for `COc1ccc(NC(=O)COc2ccc(C(C)C)cc2)c(OC)c1`: 1.9%.
Regarding `Cc1c(C(c2cc3c(cc2Br)OCO3)c2c(C)n(C)n(-c3ccccc3)c2=O)c(=O)n(-c2ccccc2)n1C`, the displacement was -4.7%.
The figure for `O=C(COc1ccccc1)Nc1cccc([N+](=O)[O-])c1` is 2.4%.
On to `COc1cc(-c2nnc(N)s2)cc(OC)c1OC`, for which the displacement worked out at 13.2%.
The figure for `COc1ccc(OC)c(N(CC(=O)Nc2ccc(C)cc2)S(=O)(=O)c2ccccc2)c1` is -5.4%.
The figure for `CCN(C(=O)c1sc(NC(=O)c2ccccc2F)c(C#N)c1C)C1CCCCC1` is 11%; for `O=C(Nc1ccccc1)c1ccccc1N=Cc1cc(Cl)cc(Cl)c1O` it is 11.3%; for `CC1=NN(C(=O)c2ccncc2)C(O)(c2ccc(Cl)cc2)C1` (stereo not drawn) it is -10.9%.
The figure for `COc1cccc(NCCC(=O)c2ccccc2)c1` is 15.7%; for `O=C(NCCN1CCOCC1)c1sc2ccccc2c1Cl` it is -3.6%.
For the molecule `C=CCOC(=O)C1=C(C)NC(C)=C(C(=O)OCC=C)C1c1ccc(C(=O)OC)cc1`, the displacement was determined as 4.8%.
The figure for `O=C(Cn1cnc2ccccc21)N=Nc1c(O)[nH]c2ccccc12` is -5.3%.
The figure for `CCOc1ccccc1C(C1=C(O)CC(C)(C)CC1=O)C1C(=O)CC(C)(C)CC1=O` (stereo not drawn) is -4.7%; for `CCOc1cccc(C(=O)Nc2ccc(NC(=O)c3cc4ccccc4o3)c(OC)c2)c1` it is 19.9%; for `Cc1ccc(S(=O)(=O)NC(=O)NCC2CCCO2)cc1` (stereo not drawn) it is -3.4%.
The figure for `C=CCN1C(=O)NC(=O)/C(=C\c2ccc(OCc3ccccc3Cl)c(OC)c2)C1=O` is -1.6%.
As for `COc1ccc(Br)cc1-c1nc2nnc(C)n2[nH]1`, the displacement is -0.3%.
The same measure for `CCCOc1cccc(C(=O)Nc2ccc(OC(F)(F)F)cc2)c1`: -6.7%; for `Cc1ccc2nc(NC(=O)C3CC3c3ccccc3)sc2c1` (stereo not drawn): 4.7%.
The same measure for `O=c1c2c([nH]c3ccccc13)CCCCC2`: -9%; for `O=C(Nc1cc([N+](=O)[O-])ccc1Cl)c1cc2ccccc2o1`: 1.2%; for `CCN1C(=O)/C(=C\c2nc3ccccc3c(=O)n2C)c2ccccc21`: 7.3%.
The figure for `O=C(c1cccnc1)N1CCN(c2ccc(Cl)cc2)CC1` is 5.9%.
As for `O=C1c2ccc(S(=O)(=O)c3ccc4c(c3)C(=O)N(CCO)C4=O)cc2C(=O)N1CCO`, the displacement stood at 1.4%.
For the molecule `CCOC(=O)c1c(C)n(C)c2c1cc(O)c1ccccc12`, the displacement was -0.3%.
The same measure for `CCC(C)c1ccc(NC(=O)c2cc(C(=O)OC)cc([N+](=O)[O-])c2)cc1` (stereo not drawn): -5.1%.
Take `CCNc1nc(NS(=O)(=O)c2ccc(C)cc2)nc(SC)n1`: the displacement worked out at 2.7%.
The same measure for `Cc1ccc(S(=O)(=O)Oc2cccc(/C=C3/SC(=S)N(Cc4ccccc4)C3=O)c2)cc1`: -1.9%; for `Cc1ccc(NC(=O)c2ccc(-c3ccc(Cl)cc3Cl)o2)c([N+](=O)[O-])c1`: -1%; for `C=C(C)C(=O)Oc1ccc(N2C(=O)C=CC2=O)cc1`: -0.2%.
The same measure for `CCc1nc(-c2ccccc2)nc(-c2ccccc2)c1C`: 3.3%; for `COc1cc(/C=N/N2CCN(Cc3ccc(Cl)cc3)CC2)cc(OC)c1OC(C)=O`: -13.7%.
The figure for `CCOC(=O)C1=C(O)/C(=C/c2ccc(O)c(OC)c2)SC1=Nc1ccc([N+](=O)[O-])cc1` is 49.9%.
Consider `COc1ccc(CC(=O)NNC(=O)c2ccc(Cl)cc2)cc1`, for which the displacement is -1.7%.
The same measure for `CCn1c2ccccc2c2nnc(SCC(=O)Nc3nnc(C(C)C)s3)nc21`: -6.7%; for `CCOC(=O)C1=C(C)N=C2c3ccccc3C(=O)C2C1c1ccc(Cl)cc1` (stereo not drawn): 11.1%; for `CCOC(=O)c1cccc(NC(=O)c2cncc(Br)c2)c1`: 11.1%.
The same measure for `CCC(CC)C(=O)Nc1ccc(C)c([N+](=O)[O-])c1`: 1.1%.
As to `COc1ccc(S(=O)(=O)N/N=C/c2ccc[nH]2)cc1`, the displacement is -0.9%.
Regarding `Cc1cccc(NC(=S)NC(NC(=O)c2ccccc2F)C(Cl)(Cl)Cl)c1` (stereo not drawn), the displacement was -6.5%.
As to `COC(=O)C1=C(C)NC(C)=C(C(=O)OC)C1c1cn(-c2ccccc2)nc1-c1ccc(S(=O)(=O)N(C)C)cc1`, the displacement came out at 9.4%.

For the origin of these results see PubChem BioAssay AID1240 (Sanford-Burnham Center for Chemical Genomics, 2008).
